As a reminder, the % Inhibition is the drop in the measured response relative to a control, in per cent.

Hit rate of the full screen: of about 150,000 compounds, about 540 (0.36%) showed an effect of 50% or more. The list shows a part of the results.

This experiment relates to Plasmodium falciparum. In words: Primary screen in NF54 nanoGlo assay, in single point, at 2uM, 72h; a lower Z score goes with more inhibition. The class given is functional, Erythrocyte. The following applies: timepoint 72 hour.
`Cc1ccc2nc(C[C@H]3CN(CC(C)(C)C)CC[C@H]3CC(=O)O)[nH]c2c1`: the “% Inhibition” value came to 2% and the Z score is -0.23.

Regarding `Cc1ccc(-c2c(NS(=O)(=O)c3ccccc3)c(O)nc3ccccc23)cc1`, the “% Inhibition” value was -11% and the Z score stood at 1.24.

In the case of `Cc1onc(N)c1S(=O)(=O)NC(=O)c1cnn(Cc2ccccc2)c1`, the “% Inhibition” value is on record as -4% and the Z score turned out to be 0.57.

Consider `CN1C[C@@H](O)CNS(=O)(=O)c2ccc(-c3cccnc3)cc2O[C@H]2CN(Cc3csnn3)C[C@H]21`, for which the “% Inhibition” value is listed as -10% and the Z score amounted to 1.58.

For the compound `Cc1cccc2c(Cc3nn4c(C)nnc4s3)noc12`, the “% Inhibition” value is reported as -5% and the Z score was 0.62.

In the case of `CCCc1nc(C(=O)N2C[C@@H]3CC[C@H]2CN(Cc2[nH]cnc2C)C3)cs1`, the “% Inhibition” value came to 4% and the Z score was -0.62.

Take `COC(=O)N1CCC[C@H](Nc2nc(C3CC3)ns2)C1`: the “% Inhibition” value is reported as -20% and the Z score came to 1.77.

Take `O=C(c1ccc(Cl)cn1)N1CC(O)CC1c1cc(F)ccc1F` (stereo not given): the “% Inhibition” value is recorded as -10% and the Z score came to 1.15.

Take `Cc1nccn1[C@@H](C)CC(=O)NC(C)(C)C(=O)O`: the “% Inhibition” value was -19% and the Z score is recorded as 1.81.

As for `Cc1cscc1C(=O)Nc1ncccc1-c1ccccc1`, the “% Inhibition” value is -14% and the Z score was 1.74.

In the case of `OCc1nc2cc(-n3ccnc3-c3cc(-c4ccccc4)no3)ccc2[nH]1`, the “% Inhibition” value is -17% and the Z score came to 2.89.

Turning to `CC(C)Nc1ncc(C(=O)N2CC(O)C2)cn1`, the “% Inhibition” value was -22% and the Z score is given as 2.36.

On to `CCN1CCN(C(=O)c2ccccc2N2CCC(NC(=O)c3ccc(Cl)cc3)CC2)CC1`, for which the “% Inhibition” value is given as -5% and the Z score is 0.58.

With `CCN(Cc1cnc(NC[C@H]2CCCO2)nc1)C1CCOCC1`, the “% Inhibition” value was determined as 6% and the Z score was -1.2.

In the case of `O=C(Cn1ncccc1=O)N1CC[C@H](OCC2CC2)C1`, the “% Inhibition” value is on record as -5% and the Z score came out at 0.76.

Turning to `CN(c1ccc(NC(=O)N2CCN(S(C)(=O)=O)CC2)cc1F)C1CCCCC1`, the “% Inhibition” value was 29% and the Z score is listed as -3.86.

On to `O=S(=O)(c1c(Cl)ccc(F)c1F)N1CC(N2CCCC2)C1`, for which the “% Inhibition” value is -7% and the Z score was 1.15.

Take `COc1ccc(-c2cc3nc(C)cc(N4CCC(C(=O)NCc5ccccc5)CC4)n3n2)cc1`: the “% Inhibition” value is listed as 4% and the Z score is -0.42.

As for `CC[C@@H](CO)N(Cc1ccco1)C(=O)CCn1ccc(=O)[nH]c1=O`, the “% Inhibition” value is given as 15% and the Z score is -1.92.

With `COC1(C(=O)NC[C@H]2CCCCN(Cc3ccccc3)C2)CCOCC1`, the “% Inhibition” value is -7% and the Z score was determined as 1.09.

Take `CC(=O)N[C@H](C(=O)N1CCCC1)C(C)C`: the “% Inhibition” value is listed as 33% and the Z score was -0.41.

As to `COc1cccc(C#CCOC(=O)c2c(C)noc2C)c1`, the “% Inhibition” value came to 1% and the Z score is listed as -0.08.

For the compound `Cc1nn(C)c(Cl)c1S(=O)(=O)N1CC(OC(C)C)C1`, the “% Inhibition” value came out at 2% and the Z score is reported as -0.43.

For `CC(C)(C)NC(=O)C(=O)NCc1cccnc1`, the “% Inhibition” value was -13% and the Z score is 1.51.

In the case of `CCc1ccc(C2CCC(C(=O)NCc3ccccc3)CN2C(C)=O)cc1` (stereo not given), the “% Inhibition” value was 0% and the Z score is on record as -0.01.

On to `C[C@@H](C(=O)NC(=O)NC1CC1)N(C)Cc1ccc2c(c1)OCCO2`, for which the “% Inhibition” value is -3% and the Z score came to 0.58.

With `CN(CCCn1cccn1)C1CCN(c2nc3ccccc3o2)CC1`, the “% Inhibition” value is -3% and the Z score worked out at 0.43.

On to `COc1ccc(NC(=O)Cn2cnc3nc(-c4cccnc4)ncc3c2=O)c(OC)c1`, for which the “% Inhibition” value is -10% and the Z score is given as 1.01.

`CC[C@H]1OCC[C@@H]1NC(=O)Nc1ccc(OC(F)F)nc1`: the “% Inhibition” value was -1% and the Z score was found to be 0.17.

In the case of `Cc1cccc(C)c1CC(=O)NS(=O)(=O)C1CCCC1`, the “% Inhibition” value is -6% and the Z score worked out at 0.8.

With `CC[C@H](c1nc2ccccc2n1C)C(O)(c1ccccc1)c1ccccc1`, the “% Inhibition” value stood at 1% and the Z score is -0.28.

Consider `CC(=O)N1CCC(CNC(=O)Nc2nnc(-c3cccs3)s2)CC1`, for which the “% Inhibition” value turned out to be 10% and the Z score is -1.24.

On to `COc1cccc(CN2CCN(c3ncnc4onc(C)c34)C[C@@H]2CCO)c1`, for which the “% Inhibition” value is reported as 2% and the Z score is reported as -0.3.

`Cc1ccc(-c2nn(CC(=O)N3CCN(C)CC3)c(=O)c3ccccc23)cc1S(=O)(=O)N1CCCCC1`: the “% Inhibition” value was -5% and the Z score is recorded as 0.77.

Take `Oc1ncccc1-c1nc2ccccc2[nH]1`: the “% Inhibition” value was determined as 30% and the Z score is -3.82.

Consider `CCc1ncc(CN(CC(=O)O)C(=O)c2ccc(F)c(C)c2)s1`, for which the “% Inhibition” value is listed as -5% and the Z score amounted to 0.44.

In the case of `N#Cc1nc(NC(=O)c2ccccc2F)[nH]c1C#N`, the “% Inhibition” value stood at 23% and the Z score is -2.05.

`Cc1csc(-c2nc3cc(F)c(Br)cc3c(=O)[nH]2)n1`: the “% Inhibition” value is recorded as -14% and the Z score stood at 1.91.

For `FC(F)(F)C1CC(C2CC2)Nc2ccnn21` (stereo not given), the “% Inhibition” value was -30% and the Z score is recorded as 3.49.

As for `Cc1nc(CCNC(=O)c2nc(N)nc3c2CCCC3)nc2c1CCC2`, the “% Inhibition” value was -12% and the Z score is 1.56.

`CC(C)(C)NC(=O)NCc1ccnc(-c2ccco2)c1`: the “% Inhibition” value is recorded as -6% and the Z score is 0.97.

Turning to `CN1CCN(C[C@H]2COc3ccccc3O2)CC1`, the “% Inhibition” value came out at 4% and the Z score is reported as -0.76.

Turning to `COc1ccc(C2c3[nH]c4ccccc4c3C[C@H]3C(=O)N(c4ccccc4C(=O)NCCc4ccc(F)cc4)C(=O)N23)cc1` (stereo not given in full), the “% Inhibition” value came to 20% and the Z score is reported as -3.69.

Turning to `CC(=O)NCC(=O)N1CCC[C@H](Oc2ccncc2)C1`, the “% Inhibition” value is recorded as 7% and the Z score is on record as -0.96.

On to `CCc1ccc(C(=O)Nc2cnc(-n3cccn3)nc2)cc1`, for which the “% Inhibition” value is on record as -7% and the Z score stood at 1.11.

`COc1ccc(C2N(c3ccccc3)OC3C(=O)N(c4ccc(C)cc4)C(=O)C32c2ccccc2)cc1` (stereo not given): the “% Inhibition” value was -3% and the Z score amounted to 0.44.

Consider `CN(CCO)C(=O)Nc1ccc(C(F)(F)F)cc1Br`, for which the “% Inhibition” value is -17% and the Z score is listed as 1.94.

Take `CC(=O)N1CCc2cc(CNS(=O)(=O)c3ccc(Cl)s3)ccc21`: the “% Inhibition” value is -15% and the Z score was 1.88.

Take `Cc1[nH]cnc1CNC(=O)CCC(C)(C)C`: the “% Inhibition” value is -6% and the Z score came to 0.56.

Consider `Cc1nnsc1CN(C)C(=O)c1ncn[nH]1`, for which the “% Inhibition” value is listed as -2% and the Z score came out at 0.33.

Take `CN(CCN1CCCCC1=O)CCn1cc[nH]c1=O`: the “% Inhibition” value was -1% and the Z score amounted to 0.13.

Consider `NC(=O)C1(O)CCN(C(=O)Cc2csc3ccccc23)CC1`, for which the “% Inhibition” value amounted to 5% and the Z score was -0.65.

For the compound `Cc1ccc(F)c(CN2CCC3(CCNCC3)C2)c1Cl`, the “% Inhibition” value stood at 1% and the Z score is on record as -0.16.

Regarding `CC(O)C(C)(CNc1ncc(F)cn1)Cc1ccccc1` (stereo not given), the “% Inhibition” value is on record as -5% and the Z score was found to be 0.83.

For `COc1cccc(C2CN(C(=O)c3ccc(Cl)cc3)CC2C(=O)NCC2CC2)c1OC` (stereo not given), the “% Inhibition” value is on record as -9% and the Z score was determined as 0.87.

Source of the values: ChEMBL document CHEMBL4888484, “Replenishing the malaria drug discovery pipeline: Screening and hit evaluation of the MMV Hit Generation Library 1 (HGL1) against asexual blood stage Plasmodium falciparum ,using a nano luciferase reporter read-out” (2022).
